Measurements: ChEMBL document CHEMBL5606458, “ASAP - ZIKV NS2B-NS3 protease fluorescence single point” (2024)
The campaign covered roughly 2,700 compounds. About 160 (5.9%) showed an effect of 50% or more. The list shows a part of the results.

Target: Nonstructural protein 3 (Zika virus) (UniProt A0A024AXB9)
[1] = PRVABC59, Concentration 15.0 uM, Number of replicates 1.0
[2] = PRVABC59, Concentration 10.0 uM, Number of replicates 1.0
[3] = PRVABC59, Concentration 50.0 uM, Number of replicates 1.0

UniProt A0A024AXB9, sequence (A0A024AXB9 as listed by the source): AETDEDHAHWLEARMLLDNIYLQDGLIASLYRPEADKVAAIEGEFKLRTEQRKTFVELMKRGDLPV

SMILES: O=C(NC[C@@H]1CCCN2CCCC[C@H]12)c1cc(Cl)ccc1NS(=O)(=O)c1ccc(Oc2ccccc2Cl)cc1
- inhibition [1]: -5.27%

SMILES: Nc1ccc(N2CCN(c3cc(C(F)(F)F)nc(-c4ccccc4)n3)CC2)cn1
- inhibition (PRVABC59, Concentration 49.5 uM, Number of replicates 2.0, Standard deviation 1.5639731162498847 %): 7.65%
- inhibition (PRVABC59, Concentration 99.01 uM, Number of replicates 2.0, Standard deviation 1.8998201100215497 %): 8.51%
- inhibition (PRVABC59, Concentration 198.0 uM, Number of replicates 2.0, Standard deviation 0.2166111991108292 %): 9.35%

SMILES: O=C(Nc1n[nH]cc1Br)c1cc(Cl)ccc1NS(=O)(=O)c1ccc(Oc2ccccc2Cl)cc1
- inhibition [1]: 38.1%

SMILES: O=C(Nc1cc(F)c(F)cc1Br)c1cc(Cl)ccc1NS(=O)(=O)c1ccc(Oc2ccccc2Cl)cc1
- inhibition [1]: 23.5%

SMILES: NCc1cccc(NC(=O)[C@@H](CCC(N)=O)NC(=O)OCc2ccccc2)c1
- inhibition (PRVABC59, Concentration 49.5 uM, Number of replicates 2.0, Standard deviation 2.849846353356957 %): 1.87%
- inhibition (PRVABC59, Concentration 99.01 uM, Number of replicates 2.0, Standard deviation 1.8981689650842868 %): 4.03%
- inhibition (PRVABC59, Concentration 198.0 uM, Number of replicates 2.0, Standard deviation 1.5999597813824264 %): 9.89%

SMILES: c1ccc2c([C@H]3CCN(Cc4ccncc4)C3)c[nH]c2c1
- inhibition (PRVABC59, Concentration 49.5 uM, Number of replicates 2.0, Standard deviation 1.9328192800910937 %): 1.84%
- inhibition (PRVABC59, Concentration 99.01 uM, Number of replicates 2.0, Standard deviation 2.6531402362507164 %): 5.16%
- inhibition (PRVABC59, Concentration 198.0 uM, Number of replicates 2.0, Standard deviation 2.1917244623609684 %): 12.1%

SMILES: O=C(N[C@H]1CC2(CCCC2)Oc2ccccc21)c1cc(Cl)ccc1NS(=O)(=O)c1ccc(Oc2ccccc2Cl)cc1
- inhibition [1]: 19.1%

SMILES: O=C(c1cc(Cl)ccc1NS(=O)(=O)c1ccc(Oc2ccccc2Cl)cc1)N(CC(F)(F)F)CC(F)(F)F
- inhibition [1]: 15.7%

SMILES: CCCCCC(=O)N[C@H](C(=O)Nc1ccc2[nH]ncc2c1)c1ccc(OCc2ccccc2)cc1
- inhibition (PRVABC59, Concentration 49.5 uM, Number of replicates 2.0, Standard deviation 4.119087369296993 %): -4.56%
- inhibition (PRVABC59, Concentration 99.01 uM, Number of replicates 2.0, Standard deviation 4.9173903211796555 %): -2.38%
- inhibition (PRVABC59, Concentration 198.0 uM, Number of replicates 2.0, Standard deviation 5.05462855212604 %): 1.33%

SMILES: CC(F)(F)c1cc(C(=O)N2CC(NC(=O)c3ccc4[nH]ncc4c3Cl)C2)[nH]n1
- inhibition (PRVABC59, Concentration 49.5 uM, Number of replicates 2.0, Standard deviation 3.1504116407209857 %): 1.63%
- inhibition (PRVABC59, Concentration 99.01 uM, Number of replicates 2.0, Standard deviation 2.686658613347066 %): 4.52%
- inhibition (PRVABC59, Concentration 198.0 uM, Number of replicates 2.0, Standard deviation 2.1995883899435253 %): 9.51%

SMILES: CS(=O)(=O)c1ccc(N2CCN(C(=O)c3cc(Cl)ccc3NS(=O)(=O)c3ccc(Oc4ccccc4Cl)cc3)CC2)c([N+](=O)[O-])c1
- inhibition [1]: 18.3%

SMILES: FC(F)c1ncc(CNCc2nnc3ccccn23)s1
- inhibition (PRVABC59, Concentration 49.5 uM, Number of replicates 2.0, Standard deviation 0.09533128229721503 %): -3.45%
- inhibition (PRVABC59, Concentration 99.01 uM, Number of replicates 2.0, Standard deviation 0.8184107075450271 %): -3.97%
- inhibition (PRVABC59, Concentration 198.0 uM, Number of replicates 2.0, Standard deviation 0.9784952277826214 %): -4.65%

SMILES: Cc1c(C(=O)NCc2nc(CN(C)C)cs2)cc(C2CC2)n1C
- inhibition (PRVABC59, Concentration 49.5 uM, Number of replicates 2.0, Standard deviation 3.07522903867604 %): -4.12%
- inhibition (PRVABC59, Concentration 99.01 uM, Number of replicates 2.0, Standard deviation 3.6541467701725825 %): -4.78%
- inhibition (PRVABC59, Concentration 198.0 uM, Number of replicates 2.0, Standard deviation 2.017506755118519 %): -4.01%

SMILES: C[C@H](NC(=O)C1CCN(c2ccc(C=O)cc2)CC1)c1c(F)cccc1F
- inhibition [2]: 27.1%

SMILES: O=Cc1ccc(N2CCC(C(=O)Nc3cccnc3Br)CC2)cc1
- inhibition [3]: 23.3%

SMILES: C#CCN(Cc1ccccc1Cl)C(=O)C1CCN(c2ccc(C=O)cc2)CC1
- inhibition [3]: 26.1%

SMILES: O=C(Nc1cccc(C(F)(F)F)c1F)c1cc(Cl)ccc1NS(=O)(=O)c1ccc(Oc2ccccc2Cl)cc1
- inhibition [1]: 25.4%

SMILES: CC(C)NC(=O)CN1CCN(C(=O)C2CCN(c3ccc(C=O)cc3)CC2)CC1
- inhibition [3]: 18.8%

SMILES: O=Cc1ccc(N2CCC(C(=O)Nc3cc(Cl)cnc3Br)CC2)cc1
- inhibition [3]: 21.1%

SMILES: Cc1cc(CO)c2cccc(NC(=O)CN3CCOCC3)c2n1
- inhibition (PRVABC59, Concentration 49.95 uM, Number of replicates 2.0, Standard deviation 2.433800281579898 %): 3.67%
- inhibition (PRVABC59, Concentration 99.9 uM, Number of replicates 2.0, Standard deviation 1.6509696063729793 %): 12%

SMILES: Cc1nc(CNC(=O)C2CCN(c3ccc(C=O)cc3)CC2)nc2c1CCCC2
- inhibition [2]: 21.2%

SMILES: CCCN(C(=O)c1cc(Cl)ccc1NS(=O)(=O)c1ccc(Oc2ccccc2Cl)cc1)[C@@H](C)c1ccccc1
- inhibition [1]: 21.6%

SMILES: COc1ccc(S(=O)(=O)Nc2ccc(C(=O)Nc3nccs3)cc2)cc1
- inhibition (PRVABC59, Concentration 49.5 uM, Number of replicates 2.0, Standard deviation 0.4374719806633149 %): -2.38%
- inhibition (PRVABC59, Concentration 99.01 uM, Number of replicates 2.0, Standard deviation 0.6866406930181425 %): -2.04%
- inhibition (PRVABC59, Concentration 198.0 uM, Number of replicates 2.0, Standard deviation 2.8226447457178896 %): -5.52%

SMILES: c1ccc2c(C[C@H]3COCCN3Cc3n[nH]c4ccccc34)c[nH]c2c1
- inhibition (PRVABC59, Concentration 49.5 uM, Number of replicates 2.0, Standard deviation 2.3213558615007135 %): 3.6%
- inhibition (PRVABC59, Concentration 99.01 uM, Number of replicates 2.0, Standard deviation 2.1736805535764847 %): 8.35%
- inhibition (PRVABC59, Concentration 198.0 uM, Number of replicates 2.0, Standard deviation 1.6192495510088922 %): 13.2%

SMILES: COc1cccc(CN(C(=O)C2CCN(c3ccc(C=O)cc3)CC2)C23CC4CC(CC(C4)C2)C3)c1
- inhibition [3]: 31.6%

SMILES: O=C(Nc1ccc(F)cc1C(F)(F)F)c1cc(Cl)ccc1NS(=O)(=O)c1ccc(Oc2ccccc2Cl)cc1
- inhibition [1]: 25%

SMILES: O=Cc1ccc(N2CCC(C(=O)N3CCN(Cc4cccc(F)c4)CC3)CC2)cc1
- inhibition [3]: 21.9%

SMILES: Cc1cc(CO)c2cccc(NC(=O)CCN)c2n1
- inhibition (PRVABC59, Concentration 49.95 uM, Number of replicates 2.0, Standard deviation 0.34164167967973086 %): 58.9%
- inhibition (PRVABC59, Concentration 99.9 uM, Number of replicates 2.0, Standard deviation 0.25939261057290325 %): 94.2%

SMILES: CN(CCc1ccc([N+](=O)[O-])cc1)C(=O)C1CCN(c2ccc(C=O)cc2)CC1
- inhibition [3]: 28.5%

SMILES: CNC(=O)Cc1cn(S(=O)(=O)c2ccc(Oc3ccccc3Cl)cc2)c2ccc(Cl)cc12
- inhibition (PRVABC59, Concentration 49.5 uM, Number of replicates 2.0, Standard deviation 2.185088188181837 %): 9.42%
- inhibition (PRVABC59, Concentration 99.01 uM, Number of replicates 2.0, Standard deviation 0.10446686459304239 %): 11.4%
- inhibition (PRVABC59, Concentration 198.0 uM, Number of replicates 2.0, Standard deviation 2.478900275472253 %): 15.5%

SMILES: Cc1cc(CO)c2cccc(Cc3ccccc3C(=O)N[C@H]3C[C@@H](O)C3)c2n1
- inhibition (PRVABC59, Concentration 49.95 uM, Number of replicates 2.0, Standard deviation 0.08913889872660044 %): -8.45%
- inhibition (PRVABC59, Concentration 99.9 uM, Number of replicates 2.0, Standard deviation 0.1730340551488695 %): -7.69%

SMILES: CCCOc1cccc(CCNC(=O)c2cc(Cl)ccc2NS(=O)(=O)c2ccc(Oc3ccccc3Cl)cc2)c1
- inhibition [1]: 28.2%

SMILES: CCc1ccc(CN(CC(C)C)C(=O)c2cc(Cl)ccc2NS(=O)(=O)c2ccc(Oc3ccccc3Cl)cc2)cc1
- inhibition [1]: 25.6%

SMILES: Cc1n[nH]c(NC(=O)c2cc(Cl)ccc2NS(=O)(=O)c2ccc(Oc3ccccc3Cl)cc2)c1Br
- inhibition [1]: 38%

SMILES: Cc1cc(NC(=O)C2CCN(c3ccc(C=O)cc3)CC2)cc(C)c1Br
- inhibition [3]: 17.4%

SMILES: N#Cc1cc(Cl)c(NC(=O)C2CCN(c3ccc(C=O)cc3)CC2)c(Cl)c1
- inhibition [3]: 24.3%

SMILES: O=C(Nc1cc(Br)cc(C(F)(F)F)c1)c1cc(Cl)ccc1NS(=O)(=O)c1ccc(Oc2ccccc2Cl)cc1
- inhibition [1]: 24%

SMILES: COc1cc(CNC(=O)C2CCN(c3ccc(C=O)cc3)CC2)cc(OC)c1OC
- inhibition [3]: 29.5%

SMILES: CSCC[C@H](NC(=O)OC(C)(C)C)C(=O)N1CCC[C@H]1C(=O)Nc1ccc(CN)cc1
- inhibition (PRVABC59, Concentration 49.5 uM, Number of replicates 2.0, Standard deviation 0.21792892032952232 %): 0.712%
- inhibition (PRVABC59, Concentration 99.01 uM, Number of replicates 2.0, Standard deviation 0.11415322190521009 %): 3.13%
- inhibition (PRVABC59, Concentration 198.0 uM, Number of replicates 2.0, Standard deviation 3.3166708849996684 %): 5.1%

SMILES: O=Cc1ccc(N2CCC(C(=O)N3CCN(CC(=O)N4CCOCC4)CC3)CC2)cc1
- inhibition [3]: 19.3%

SMILES: O=Cc1ccc(N2CCC(C(=O)Nc3cc(Cl)ccc3Br)CC2)cc1
- inhibition [3]: 19.5%
